Source: the supplement of paper PMC10126150
Values marked as one replicate rest on one cluster of the flow cell; about a third of the high ones do not repeat.
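Also: ATP exposure 15 min at 22 °C before imaging.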

The sequences below were run on ATP (assay: switch fluorescence ratio, 500 uM ATP over buffer (Cy3 cluster intensity, sum of 5 cycles each) (fold (ratio)); higher = stronger signal-on switching upon ATP binding; sequences stand for … in TCGTCGGCAGCGTCAGATGTGTATAAGAGACAGTTTTTTTTTTTTTTTTTTTTTTTTT…TC). Details: aptamer strand: ATP DNA aptamer (quencher-CACCTGGGGGAGTATTGCGGAGGAAGG + anchor), 100 nM annealed; ATP concentration: 500 uM; one replicate.
In short: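 Values give the fluorescence ratio for each switch-domain sequence, averaged from per-cluster ratios of summed target-cycle to summed buffer-cycle Cy3 intensity. The Cy3-labelled switching-strand clusters sat on a modified Illumina MiSeq flow-cell, were annealed to 100 nM quencher-labelled ATP aptamer, and were imaged in selection buffer, then after 15 min with 500 uM ATP at 22 °C. Five cycles ran with NaOH stripping and re-annealing between them, and clusters outside 100-1000 RFU were excluded.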
In the case of TCCCGAACAT, the switch fluorescence ratio is reported as 1.05.
TCCCGAGGGT gave a switch fluorescence ratio of 1.04.
In the case of TCCCGAGTTT, the switch fluorescence ratio is reported as 1.05.
TCCCGGCCGC was tested, and the switch fluorescence ratio was 1.17.
TCCCGGTCGG showed a switch fluorescence ratio of 0.974.
Work on TCCCGTCTCA yielded a switch fluorescence ratio of 1.05.
TCCCTCAAAA showed a switch fluorescence ratio of 1.51.
Work on TCCCTGGCGG yielded a switch fluorescence ratio of 1.03.
With TCCCTTGCAG the switch fluorescence ratio was 1.09.
In the case of TCCCTTTGG, the switch fluorescence ratio is reported as 1.54.
With TCCGAAGTTG the switch fluorescence ratio was 2.35.
TCCGAATGTA was tested, and the switch fluorescence ratio was 1.15.
Work on TCCGACCTAG yielded a switch fluorescence ratio of 1.08.
TCCGACTTC gave a switch fluorescence ratio of 1.15.
Sequence TCCGAGGGGA has a switch fluorescence ratio of 1.65.
In the case of TCCGAGGTCG, the switch fluorescence ratio is reported as 1.08.
In the case of TCCGATAGGA, the switch fluorescence ratio is reported as 1.01.
In the case of TCCGCGCTGG, the switch fluorescence ratio is reported as 1.59.
TCCGCTAGG was tested, and the switch fluorescence ratio was 1.1.
TCCGGATAT was tested, and the switch fluorescence ratio was 1.17.
TCCGGCTTTA showed a switch fluorescence ratio of 1.09.
Work on TCCGGGCGCC yielded a switch fluorescence ratio of 1.04.
TCCGGTACAT gave a switch fluorescence ratio of 1.09.
In the case of TCCGGTGGAG, the switch fluorescence ratio is reported as 1.02.
TCCGGTTGGT was tested, and the switch fluorescence ratio was 0.984.
TCCGTACACA was tested, and the switch fluorescence ratio was 1.3.
In the case of TCCGTATTAA, the switch fluorescence ratio is reported as 1.59.
With TCCGTCTCGT the switch fluorescence ratio was 1.06.
Sequence TCCGTGAGGG has a switch fluorescence ratio of 1.03.
In the case of TCCGTGCATC, the switch fluorescence ratio is reported as 2.34.
Sequence TCCGTGTCAT has a switch fluorescence ratio of 1.02.
With TCCGTTTGCG the switch fluorescence ratio was 1.01.
For TCCTAATCAG, the switch fluorescence ratio was 1.01.
With TCCTATGATA the switch fluorescence ratio was 1.08.
Work on TCCTCGAAGG yielded a switch fluorescence ratio of 1.11.
In the case of TCCTCTTCAA, the switch fluorescence ratio is reported as 1.04.
TCCTGACCGT was tested, and the switch fluorescence ratio was 1.12.
TCCTGCATAG gave a switch fluorescence ratio of 2.13.
With TCCTGCTTGG the switch fluorescence ratio was 1.
In the case of TCCTGGCACA, the switch fluorescence ratio is reported as 1.33.
For TCCTGGCTGA, the switch fluorescence ratio was 1.07.
Sequence TCCTGGGACG has a switch fluorescence ratio of 1.07.
Work on TCCTGTATGA yielded a switch fluorescence ratio of 1.04.
TCCTGTGGCC showed a switch fluorescence ratio of 1.02.
TCCTTAATCT was tested, and the switch fluorescence ratio was 1.01.
TCCTTATAGT was tested, and the switch fluorescence ratio was 1.04.
TCCTTGTCTG was tested, and the switch fluorescence ratio was 1.
Sequence TCCTTGTGGC has a switch fluorescence ratio of 1.08.
TCCTTTCACG showed a switch fluorescence ratio of 1.15.
In the case of TCCTTTGTTA, the switch fluorescence ratio is reported as 1.01.
With TCCTTTTCGT the switch fluorescence ratio was 0.984.
TCGAAAAGAT was tested, and the switch fluorescence ratio was 0.978.
For TCGAAACACC, the switch fluorescence ratio was 1.04.
TCGAAACACG showed a switch fluorescence ratio of 1.05.
Work on TCGAAAGATC yielded a switch fluorescence ratio of 1.04.
TCGAAATTGA showed a switch fluorescence ratio of 1.
TCGAACACAA gave a switch fluorescence ratio of 2.89.
Sequence TCGAAGAGTC has a switch fluorescence ratio of 0.984.
TCGAAGTCGT gave a switch fluorescence ratio of 1.01.
In the case of TCGAATAGCT, the switch fluorescence ratio is reported as 1.06.
In the case of TCGAATCCCG, the switch fluorescence ratio is reported as 1.03.
Work on TCGACACCGA yielded a switch fluorescence ratio of 1.08.
With TCGACATTGT the switch fluorescence ratio was 0.99.
With TCGACCCTCT the switch fluorescence ratio was 1.02.
TCGACTAGAT showed a switch fluorescence ratio of 1.07.
TCGACTCTTT gave a switch fluorescence ratio of 1.06.
TCGAGAGATG was tested, and the switch fluorescence ratio was 0.973.
For TCGAGATCGG, the switch fluorescence ratio was 0.954.
Sequence TCGAGGGACA has a switch fluorescence ratio of 1.09.
With TCGAGTCGGG the switch fluorescence ratio was 1.01.
With TCGAGTGGTC the switch fluorescence ratio was 1.02.
For TCGAGTTGAG, the switch fluorescence ratio was 1.01.
TCGATGTATG gave a switch fluorescence ratio of 0.98.
For TCGCAAAGAT, the switch fluorescence ratio was 1.42.
TCGCACCTTG was tested, and the switch fluorescence ratio was 1.04.
Work on TCGCAGCCTA yielded a switch fluorescence ratio of 1.22.
Work on TCGCAGGCTA yielded a switch fluorescence ratio of 1.16.
In the case of TCGCATGGAG, the switch fluorescence ratio is reported as 1.01.
For TCGCATTCG, the switch fluorescence ratio was 1.12.
Sequence TCGCCACATA has a switch fluorescence ratio of 1.17.
In the case of TCGCCATAGA, the switch fluorescence ratio is reported as 1.06.
TCGCGAATTA was tested, and the switch fluorescence ratio was 1.
For TCGCGACATA, the switch fluorescence ratio was 1.03.
Work on TCGCGATGGT yielded a switch fluorescence ratio of 1.51.
With TCGCGATTGG the switch fluorescence ratio was 1.1.
TCGCGCTACC showed a switch fluorescence ratio of 1.71.
With TCGCGGCTCA the switch fluorescence ratio was 1.11.
Sequence TCGCGGCTG has a switch fluorescence ratio of 0.976.
TCGCGGGGGT was tested, and the switch fluorescence ratio was 1.04.
TCGCGGTGG showed a switch fluorescence ratio of 1.06.
For TCGCGTAAAA, the switch fluorescence ratio was 0.979.
TCGCGTCTAA showed a switch fluorescence ratio of 1.
Work on TCGCGTCTCT yielded a switch fluorescence ratio of 1.07.
In the case of TCGCGTTCTA, the switch fluorescence ratio is reported as 0.963.
With TCGCGTTTAC the switch fluorescence ratio was 1.59.
Work on TCGCTAGTCA yielded a switch fluorescence ratio of 1.02.
TCGCTCATTT showed a switch fluorescence ratio of 0.995.
TCGCTGGGTG was tested, and the switch fluorescence ratio was 1.26.
TCGCTGGTTC showed a switch fluorescence ratio of 1.06.
With TCGCTTAAGT the switch fluorescence ratio was 1.
Work on TCGGAACCTG yielded a switch fluorescence ratio of 0.883.
TCGGACGCTT gave a switch fluorescence ratio of 4.16.
For TCGGACGGCT, the switch fluorescence ratio was 0.936.
Work on TCGGATCTGT yielded a switch fluorescence ratio of 0.952.
TCGGATTACT was tested, and the switch fluorescence ratio was 1.21.
Work on TCGGCACTTA yielded a switch fluorescence ratio of 1.05.
With TCGGCAGACT the switch fluorescence ratio was 1.08.
Work on TCGGCAGTG yielded a switch fluorescence ratio of 1.08.
TCGGCGAGGC was tested, and the switch fluorescence ratio was 1.09.
For TCGGCGGGAA, the switch fluorescence ratio was 0.997.
TCGGCGGGTT gave a switch fluorescence ratio of 1.02.
For TCGGCGTGCG, the switch fluorescence ratio was 0.982.
TCGGCTAGCG showed a switch fluorescence ratio of 0.957.
TCGGGAGT showed a switch fluorescence ratio of 1.02.
For TCGGGCACCT, the switch fluorescence ratio was 1.28.
In the case of TCGGGCTCTT, the switch fluorescence ratio is reported as 1.
With TCGGGGCTGA the switch fluorescence ratio was 1.
TCGGGGGAGA showed a switch fluorescence ratio of 1.
In the case of TCGGGGTGGA, the switch fluorescence ratio is reported as 1.01.
In the case of TCGGGTAAAT, the switch fluorescence ratio is reported as 0.964.
Sequence TCGGGTATAA has a switch fluorescence ratio of 1.04.
In the case of TCGGGTATCA, the switch fluorescence ratio is reported as 1.
Sequence TCGGTAGTCC has a switch fluorescence ratio of 1.02.
TCGGTCATAT was tested, and the switch fluorescence ratio was 0.999.
Work on TCGGTCTGAA yielded a switch fluorescence ratio of 0.994.
In the case of TCGGTGAGG, the switch fluorescence ratio is reported as 1.02.
TCGGTGTACG gave a switch fluorescence ratio of 1.07.
Work on TCGGTTACGG yielded a switch fluorescence ratio of 1.03.
With TCGGTTCATC the switch fluorescence ratio was 0.974.
With TCGGTTCGGC the switch fluorescence ratio was 0.96.
TCGTAAGGGA showed a switch fluorescence ratio of 1.02.
TCGTAATAGA was tested, and the switch fluorescence ratio was 0.994.
TCGTAATATT gave a switch fluorescence ratio of 1.2.
Work on TCGTACAGGC yielded a switch fluorescence ratio of 1.03.
In the case of TCGTACGAAT, the switch fluorescence ratio is reported as 0.968.
TCGTACTATC was tested, and the switch fluorescence ratio was 1.05.
TCGTAGCGAA was tested, and the switch fluorescence ratio was 2.27.
TCGTAGGCAC showed a switch fluorescence ratio of 1.04.
In the case of TCGTAGGGTG, the switch fluorescence ratio is reported as 1.13.
TCGTATAT showed a switch fluorescence ratio of 1.04.
TCGTATTCGA showed a switch fluorescence ratio of 1.02.
TCGTATTTGA showed a switch fluorescence ratio of 0.99.
For TCGTCAAGGT, the switch fluorescence ratio was 1.
Work on TCGTCAGTTG yielded a switch fluorescence ratio of 1.03.
TCGTCATAAT was tested, and the switch fluorescence ratio was 1.02.
Sequence TCGTCATCTC has a switch fluorescence ratio of 1.
For TCGTCCGGG, the switch fluorescence ratio was 1.13.
In the case of TCGTCGAGAT, the switch fluorescence ratio is reported as 1.02.
In the case of TCGTGAGGAG, the switch fluorescence ratio is reported as 0.963.
Sequence TCGTGCGTTC has a switch fluorescence ratio of 1.03.
Sequence TCGTGCTGT has a switch fluorescence ratio of 0.996.
TCGTGGATCT showed a switch fluorescence ratio of 0.971.
Work on TCGTGGTGAA yielded a switch fluorescence ratio of 0.974.
In the case of TCGTGTCGAA, the switch fluorescence ratio is reported as 1.03.
In the case of TCGTTAGTGT, the switch fluorescence ratio is reported as 1.
Sequence TCGTTCCGAT has a switch fluorescence ratio of 1.02.
TCGTTGAATT gave a switch fluorescence ratio of 0.983.
In the case of TCGTTGGTAC, the switch fluorescence ratio is reported as 1.24.
Work on TCGTTGTCTT yielded a switch fluorescence ratio of 0.968.
Work on TCGTTTAGAA yielded a switch fluorescence ratio of 0.998.
For TCGTTTCAGT, the switch fluorescence ratio was 1.01.
In the case of TCGTTTTATG, the switch fluorescence ratio is reported as 0.986.
TCTAAAACAC gave a switch fluorescence ratio of 1.4.
TCTAAAATAG gave a switch fluorescence ratio of 1.05.
With TCTAAAATTG the switch fluorescence ratio was 1.01.
For TCTAACGC, the switch fluorescence ratio was 2.42.
In the case of TCTAAGGTCG, the switch fluorescence ratio is reported as 0.962.
For TCTAATTAGG, the switch fluorescence ratio was 1.02.
Work on TCTACACGCT yielded a switch fluorescence ratio of 1.02.
TCTACAGCTT showed a switch fluorescence ratio of 1.08.
In the case of TCTACCCATA, the switch fluorescence ratio is reported as 1.06.
TCTACTTAT gave a switch fluorescence ratio of 1.07.
With TCTAGAGGTA the switch fluorescence ratio was 0.98.
With TCTAGAGTAG the switch fluorescence ratio was 0.978.
TCTAGATATA was tested, and the switch fluorescence ratio was 0.995.
TCTAGCATTG showed a switch fluorescence ratio of 1.01.
With TCTAGGGATA the switch fluorescence ratio was 1.
With TCTAGTCCAT the switch fluorescence ratio was 0.965.
TCTAGTCTCA showed a switch fluorescence ratio of 0.993.
With TCTATATCGA the switch fluorescence ratio was 0.989.
TCTATCAGAC gave a switch fluorescence ratio of 0.993.
Sequence TCTATGACGT has a switch fluorescence ratio of 0.986.
In the case of TCTATGGGGA, the switch fluorescence ratio is reported as 1.02.
TCTATTAAGT showed a switch fluorescence ratio of 1.01.
With TCTATTATAT the switch fluorescence ratio was 1.06.
TCTATTGCCG gave a switch fluorescence ratio of 1.1.
TCTATTGGGT was tested, and the switch fluorescence ratio was 1.02.
TCTCAAATTG showed a switch fluorescence ratio of 1.01.
For TCTCAATTTA, the switch fluorescence ratio was 1.01.
TCTCACATAT showed a switch fluorescence ratio of 1.03.
For TCTCAGATA, the switch fluorescence ratio was 0.937.
TCTCAGTTTA showed a switch fluorescence ratio of 0.981.
Sequence TCTCCATCTA has a switch fluorescence ratio of 1.03.
With TCTCCCCACA the switch fluorescence ratio was 1.3.
TCTCCCTTTA was tested, and the switch fluorescence ratio was 1.08.
With TCTCCTTTGT the switch fluorescence ratio was 0.96.
In the case of TCTCGACTCC, the switch fluorescence ratio is reported as 1.23.
TCTCGCGTTG was tested, and the switch fluorescence ratio was 0.98.
For TCTCGGATTC, the switch fluorescence ratio was 1.07.
For TCTCGGCAAT, the switch fluorescence ratio was 4.
